In US20230023009A1, “HETEROCYCLIC COMPOUNDS AND METHODS OF USE THEREOF” (SPARCBIO LLC, priority 2020, published 2023):

Key:
NCI-H358 cells = test: 3D cell proliferation assay (Cell Titer-Glo 3D, 7 days); format: cell-based; settings: Homo sapiens, NCI-H358, 168 h, NCI-H358 3D, ultra-low attachment plate
Experimental: NCI-H358 cells (ATCC® CRL-5807™) were plated in a 384-well Black/Clear Round Bottom Ultra-Low Attachment Microplate (Corning) in medium (RPMI-1640+10% FBS) at a density of 1000 cells in 50 μL per well, then incubated overnight at 37° C. and 5% CO2. Cells were treated with test compounds at 9 concentrations within a specified concentration range (e.g., 0.5 nM-10 μM) for generation of dose response curves. Test compounds were prepared by 1:3 serial dilution in DMSO from a specified starting concentration (e.g., 20 μM, 2 μM or 0.2 μM) and then added to wells of the assay plate in a total volume of 150 nL DMSO. The cells were further incubated at 37° C. and 5% CO2 for 7 days. Cell viability was assessed by adding 40 μL of Cell Titer-Glo® 3D reagent (Cat. No.: G9683, Promega) to each well and reading luminescence after mixing and incubation of the samples. The IC50 value of each test compound was calculated with XLFit curve fitting software.

KRAS G12C protein = KRAS G12C protein (Homo sapiens, UniProt P01116, G12C); test: Nucleotide exchange assay (Method III, KRAS G12C/Raf-RBD TR-FRET); format: biochemical; settings: SOS1-mediated exchange of GDP for GTP, 18 hr compound incubation
Experimental: Method III. Inhibition of SOS1-mediated exchange of GDP for GTP on the KRAS G12C protein was measured in a biochemical assay that monitors association of KRAS G12C protein with the Ras-binding domain of Raf (Raf-RBD), where the association is coupled to exchange of GDP to GTP on the KRAS G12C protein. The assay was performed at WuXi AppTec (Shanghai, China). Compounds were serially diluted in 3-fold dilutions to 11 concentrations and spotted into the wells of an assay plate in a total volume of 150 nL DMSO per well. A 2× enzyme mix was prepared by diluting GDP-bound, His-tagged KRAS G12C to 25 nM in assay buffer. 10 μL/well of 2× enzyme mix was added to all wells, and the plate was sealed and incubated overnight (18 hr) at 23° C. 4×SOS1/GDP and 4×SOS1/GTP were prepared in assay buffer. 5 μL/well of 4×SOS1/GDP mix was added to negative control wells, 5 μL/well of 4×SOS1/GTP mix was added to the remaining wells, and the plate was further incubated at 23° C. for 1 hr. […] The TR-FRET signals, which increase with association of KRAS G12C and Raf-RBD, were measured on a Perkin Elmer Envision 2104 plate reader, and data were analyzed by non-linear regression to obtain IC50 values for inhibition by compounds. […]

SW1573 = test: Cell proliferation assay panel (Cell Titer-Glo, 72 hr); format: cell-based; settings: Homo sapiens
Experimental: (§1) Potency of compounds was determined in cell proliferation assays in a panel of cancer cell lines. Cells were seeded in 384-well plates (Corning, Cat. #3765) at specified densities in 40 μL of culture medium and incubated overnight at 37° C. in a 5% CO2 incubator (culture conditions). With a robotic dispenser, serially diluted test compounds were added in a volume of 20 nL DMSO to wells in the culture plate to achieve the final desired concentrations of test compounds, and the cells were further incubated in culture conditions for 72 hr. The assay was terminated by addition of 25 μL of Cell Titer-Glo reagent (Promega, Madison, Wis.) to each well. Contents were mixed, the plate was incubated for 10 min at room temperature and luminescence was measured. The IC50 value of each test compound was calculated with XLFit curve fitting software. Results are shown in Table 4. ‘+++’ indicates IC50 values≤300 nM, ‘++’ indicates IC50 values between 300 nM-3 μM, and ‘+’ indicates IC50 values≥3 μM.

NCI-H1373 = test: as above; format: cell-based; settings: Homo sapiens
Experimental: as §1

A549 = test: as above; format: cell-based; settings: Homo sapiens
Experimental: as §1

NCI-H358 = test: as above; format: cell-based; settings: Homo sapiens
Experimental: as §1

NCI-H2122 = test: as above; format: cell-based; settings: Homo sapiens
Experimental: as §1

KYSE-410 = test: as above; format: cell-based; settings: Homo sapiens
Experimental: as §1

MIA PaCa-2 = test: as above; format: cell-based; settings: Homo sapiens, MIA PaCa-2, 72 h
Experimental: as §1

NCI-H2030 = test: as above; format: cell-based; settings: Homo sapiens
Experimental: as §1

hERG potassium channel = molecular target: T1, hERG potassium channel (Homo sapiens, UniProt Q12809); test: hERG inhibition assay (manual whole-cell patch-clamp, CHO cells); format: cell-based
T1 construct: host or cells: CHO
Experimental: Compounds were tested for the potential to inhibit the hERG potassium channel. It is known that inhibition of the hERG channel may cause QT prolongation and increase the risk of cardiac arrhythmias. Therefore, to avoid cardiotoxicity, a compound with relatively low or no inhibition of the channel is desirable. Manual whole-cell patch-clamp recordings were made in Chinese hamster ovary (CHO) cells stably expressing hERG channels (B'Sys, Switzerland). Standard intracellular and bath solutions for hERG current detection were used. Cells were exposed to test compounds at 6 concentrations prepared by 1:3 serial dilution of compounds from a top starting concentration of 30 μM. Currents were elicited by stepping the voltage from a holding potential of −80 mV to −50 mV (20 ms) and then stepping to +40 mV (4 s). A subsequent step to −50 mV (4 s) was used to elicit a tail current which was used for data analysis. Current recordings were made in triplicate using three different cells. Data normalized to the activity in vehicle (0.1 or 0.3% DMSO) were fit with 4-parameter non-linear regression, and IC50 values were determined from the dose-response curves, using GraphPad Prism software.

[1] = test system: NCI-H358 subcutaneous xenograft tumors; test: NCI-H358 mouse xenograft model; settings: 30 mg/kg orally once daily; Day 20 after treatment start (day not restated for comparators)

T1 sequence (Q12809 whole entry): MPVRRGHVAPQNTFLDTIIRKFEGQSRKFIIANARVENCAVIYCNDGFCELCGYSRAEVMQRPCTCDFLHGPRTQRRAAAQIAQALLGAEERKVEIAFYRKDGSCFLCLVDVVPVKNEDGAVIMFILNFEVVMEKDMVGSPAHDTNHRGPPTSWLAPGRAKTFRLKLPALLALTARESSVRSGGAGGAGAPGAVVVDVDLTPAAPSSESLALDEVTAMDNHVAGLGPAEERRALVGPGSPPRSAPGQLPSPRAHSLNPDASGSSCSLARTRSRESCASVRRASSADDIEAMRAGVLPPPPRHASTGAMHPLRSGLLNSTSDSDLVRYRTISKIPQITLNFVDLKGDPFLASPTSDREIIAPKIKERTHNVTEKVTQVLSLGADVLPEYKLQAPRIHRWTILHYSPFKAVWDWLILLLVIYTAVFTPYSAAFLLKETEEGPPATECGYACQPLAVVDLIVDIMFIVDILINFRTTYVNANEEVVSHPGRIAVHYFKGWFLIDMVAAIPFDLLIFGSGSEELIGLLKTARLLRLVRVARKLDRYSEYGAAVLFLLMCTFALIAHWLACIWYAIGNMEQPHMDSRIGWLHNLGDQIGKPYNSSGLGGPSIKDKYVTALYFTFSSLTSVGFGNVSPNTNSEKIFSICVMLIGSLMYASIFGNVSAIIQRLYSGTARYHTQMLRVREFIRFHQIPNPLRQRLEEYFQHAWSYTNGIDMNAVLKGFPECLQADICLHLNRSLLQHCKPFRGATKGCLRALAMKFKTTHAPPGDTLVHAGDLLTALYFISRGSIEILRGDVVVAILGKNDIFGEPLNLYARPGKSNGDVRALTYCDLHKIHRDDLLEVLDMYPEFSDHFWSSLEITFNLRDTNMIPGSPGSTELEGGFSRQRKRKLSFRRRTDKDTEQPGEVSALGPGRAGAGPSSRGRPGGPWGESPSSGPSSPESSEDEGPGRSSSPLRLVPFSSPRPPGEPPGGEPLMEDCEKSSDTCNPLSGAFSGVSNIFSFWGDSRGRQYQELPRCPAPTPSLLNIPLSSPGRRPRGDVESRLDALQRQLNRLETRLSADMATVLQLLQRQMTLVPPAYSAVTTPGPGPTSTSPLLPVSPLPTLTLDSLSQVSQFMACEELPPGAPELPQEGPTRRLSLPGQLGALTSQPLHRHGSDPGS
KRAS G12C protein, sequence (P01116 1-188 isoform P01116-2 G12C): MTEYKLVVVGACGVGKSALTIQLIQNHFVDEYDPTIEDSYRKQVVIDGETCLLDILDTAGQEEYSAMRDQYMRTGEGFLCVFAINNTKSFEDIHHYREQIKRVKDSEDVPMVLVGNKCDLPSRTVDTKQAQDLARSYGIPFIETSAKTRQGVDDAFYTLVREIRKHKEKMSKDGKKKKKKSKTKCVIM

For `C=C(F)C(=O)N1CCN(c2nc(N3CC(N(CC)CC)C3)nc3c2COC(c2cccc4cccc(Cl)c24)C3)C[C@@H]1CC#N` (single isomer, unassigned) [229 (Isomer A)], which IC50 (NCI-H358 cells) is on record?
Its IC50 is ≤ 100 nM.

And the IC50 (KRAS G12C protein)?
The IC50 was ≤ 300 nM.

And the IC50 (SW1573)?
The IC50 was ≥ 3000 nM.

What about the IC50 (NCI-H1373) of the same molecule?
Its IC50 is ≥ 3000 nM.

What about the IC50 (A549) of the same molecule?
Its IC50 is ≥ 3000 nM.

And the IC50 (NCI-H358)?
The IC50 was ≤ 300 nM.

What about the IC50 (NCI-H2122) of the same molecule?
The IC50 was ≥ 3000 nM.

And the IC50 (KYSE-410)?
Its IC50 is ≥ 3000 nM.

What about the IC50 (MIA PaCa-2) of the same molecule?
Its IC50 is 300 to 3000 nM.

What about the IC50 (NCI-H2030) of the same molecule?
Its IC50 is 300 to 3000 nM.

How did the IC50 (hERG potassium channel) turn out when `C=C(F)C(=O)N1CCN(c2nc(OC[C@@H]3CCCN3C)nc3c2CCN(c2cccc4cccc(Cl)c24)C3)C[C@@H]1CC#N` [Y (MRTX849)] was run?
Its IC50 is 710 nM.

With `C=CC(=O)N1CCN(c2nc(=O)n(-c3c(C)ccnc3C(C)C)c3nc(-c4c(O)cccc4F)c(F)cc23)[C@@H](C)C1` [X (AMG 510), reference compound] as the molecule, how does the TGI [1] read?
Its TGI is 87.1%.
